Measurements published in PubChem BioAssay AID1159614 (National Center for Advancing Translational Sciences (NCATS), 2016).
In all, about 45,000 compounds went through this assay and about 65 (0.1%) were called active. The call rests on the fitted dose curve; in most records, active means well fitted activation curve with a large enough effect; inconclusive means small, poorly fitted or top-dose-only effect; inactive means no such curve, though single readings can be large or run the other way. The list shows a part of the results.

Biological target: Galactocerebrosidase (Homo sapiens) (UniProt P54803)
Assay: A Novel Cell-Based Assay to Identify Small Molecules for B -Galactocerebrosidase; further: 0% is about no effect; nearly all actives have a fitted effect of over 65% in size
Conditions: 145M-Twi-hGALC-G270D cells (Twitcher mouse brain line with human GALC G270D), HMU-beta-Gal fluorescence, 48 h; series mostly up to 57.5 µM; activation: at the top concentration
Procedure, shortened: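 Fluorescence readout: HMU-β-gal cleavage by mutant GALC (0.1 mM final, citrate/phosphate pH 5.2 with 1 mg/mL taurocholate), stopped with carbonate/bicarbonate plus Triton X-100. Cells: murine Twitcher 145M-Twi expressing human G270D GALC; qHTS for activators.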

Chain of UniProt P54803 (P54803 whole entry, looked up): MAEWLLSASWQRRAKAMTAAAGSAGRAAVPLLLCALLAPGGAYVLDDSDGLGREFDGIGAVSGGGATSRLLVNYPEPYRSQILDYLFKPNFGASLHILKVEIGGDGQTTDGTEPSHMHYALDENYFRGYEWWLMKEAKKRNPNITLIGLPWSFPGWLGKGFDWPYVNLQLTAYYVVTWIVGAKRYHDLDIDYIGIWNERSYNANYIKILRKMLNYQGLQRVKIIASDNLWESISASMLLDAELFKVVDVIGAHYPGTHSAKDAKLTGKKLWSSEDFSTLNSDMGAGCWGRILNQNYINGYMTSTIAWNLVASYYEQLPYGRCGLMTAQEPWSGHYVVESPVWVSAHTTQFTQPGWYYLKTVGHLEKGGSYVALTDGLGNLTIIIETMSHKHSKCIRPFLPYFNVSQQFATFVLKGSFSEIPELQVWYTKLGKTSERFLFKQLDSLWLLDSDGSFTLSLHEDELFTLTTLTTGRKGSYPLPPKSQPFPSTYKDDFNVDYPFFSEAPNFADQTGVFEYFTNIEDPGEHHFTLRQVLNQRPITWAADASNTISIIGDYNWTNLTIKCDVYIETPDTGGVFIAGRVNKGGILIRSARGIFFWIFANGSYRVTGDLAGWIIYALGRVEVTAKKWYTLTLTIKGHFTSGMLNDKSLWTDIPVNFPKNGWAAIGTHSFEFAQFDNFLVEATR

activation, inactive:
COC(=O)c1cc2sc(C)cc2n1Cc1nc(-c2ccc(C)cc2)oc1C 1.93%
Cc1ccc(C)c(NC(=O)CSc2nc(=O)n(Cc3ccncc3)c3c2CCC3)c1 -15.2%
Cc1cc2n(n1)CCC(=O)N2Cc1ccc(C(=O)Nc2cccc(C(F)(F)F)c2)cc1 1.86%
CN(C)CCC(c1ccccc1)c1ccccn1 (configuration not stated) -7.68%
O=C(Cc1ccc(Cl)cc1)Nc1ccc2oc(-c3ccccc3F)nc2c1 -19.4%
CNC(=O)c1c(NC(=O)Cc2coc3ccc(OC)cc23)sc2c1CCCC2 -12.2%
COc1cccc(CN(C(=O)c2oc3ccccc3c2C)C2CCS(=O)(=O)C2)c1 (configuration not stated) -13.9%
CCc1cccc(C)c1NC(=O)CCS(=O)(=O)c1ccc2c(c1)oc(=O)n2C -20.1%
CCN1C(=O)C(Cc2nc3ccccc3c(=O)n2C)c2cc(C)ccc21 (configuration not stated) 19.2%
CCc1ccc(S(=O)(=O)c2nnn3c2nc(NCc2ccccc2)c2cc(Cl)ccc23)cc1 -10.9%
O=C(Nc1ccc(Cl)cc1)c1cc(S(=O)(=O)NC2CCCCCC2)ccc1F -8.22%
COc1cc(NS(=O)(=O)c2ccc(-c3cc(C)no3)cc2)cc(OC)c1 -24.3%
Cc1ccc(-c2csc3ncnc(Nc4ccc(C(=O)O)cc4)c23)cc1 -19.5%
O=C(CN1CCN(Cc2ccccc2Cl)C1=O)NCCc1ccc(Cl)cc1 -11.1%
COc1ccccc1-c1nc2cc(NC(=O)c3ccccc3Cl)ccc2o1 1.98%
CCCNC(=O)C(Cc1ccccc1)NS(=O)(=O)c1ccc2c(c1)c(=O)n(C)c(=O)n2C (configuration not stated) 10.9%
CCOc1ccc(C(=O)Nc2ccc3c(c2)OCCO3)cc1Br 7.05%
COc1ccc(Cl)cc1NC(=O)CN1Cc2ccccc2C1=O -13.7%
COc1ccc(Cn2c(C(=O)O)c(CNC3CCCCC3)c3ccc(C)cc32)cc1 -3.53%
COC(=O)c1ccc2c(c1)N(Cc1ccccc1)C(=O)c1ccccc1S2(=O)=O -11.7%
COc1ccc(OC)c(/C=C(\C#N)c2nc(-c3ccc(F)cc3)cs2)c1 -28.9%
Cc1nc(S(=O)(=O)N2CCN(c3ccccc3F)CC2)cn1C -2.77%
COc1ccccc1NC(=O)c1sc2nc3n(c(=O)c2c1C)N=C(c1cccc(Br)c1)CS3 -18%
COc1ccc2c(c1)CCc1c(C(=O)Nc3ccc(OC)cc3OC)noc1-2 -10.7%
Cc1ccc(SCc2nc(-c3ccc(C(=O)NCC(C)c4ccccc4)cc3)oc2C)cc1 (configuration not stated) -11%
Cc1cccc(CNC(=O)CN2C(=O)CCn3nc(-c4cn(C)c5ccccc45)cc32)c1 -21.9%
CCCC12CN3CC(C)(CN(C1)C3c1ccc(OCc3ccccc3)cc1)C2=O (configuration not stated) -16.9%
Nc1c(-c2nc(-c3ccc4c(c3)OCO4)cs2)c2ccccn2c1C(=O)c1ccc(Cl)cc1 -12.2%
CCOc1ccc(NC(=O)Cc2c[nH]c3ccccc23)cc1 -13.8%
O=C(O)c1ccc(NC(=O)c2ccc(Br)c(S(=O)(=O)N3CCCC3)c2)cc1 -1.21%
COc1cc(C(CC(=O)Nc2ncccc2C)N2Cc3ccccc3C2=O)cc(OC)c1OC (configuration not stated) -13.7%
CCOC(=O)c1cnc2ccc(OCC)cc2c1Nc1ccc(OCc2ccccc2Cl)cc1 -0.698%
Cc1cccc(CNC(=O)CN2C(=O)CSc3c2c(C)nn3-c2ccccc2)c1 2.68%
CCN(c1ccccc1)S(=O)(=O)c1ccc(NC(=O)c2nc(SC(C)C)ncc2Cl)cc1 -14.6%
Cc1c(O)cccc1C(=O)N[C@@H](CSc1ccccc1)[C@H](O)CN1C[C@H]2CCCC[C@H]2C[C@H]1C(=O)NC(C)(C)C -14.2%
CCOc1ccc(Br)cc1C1NC(=O)c2c(sc3c2CCN(C)C3)N1 (configuration not stated) -11.9%
O=C(OCc1cc(=O)n2nc(C3CC3)sc2n1)c1ccc(NC(=O)c2ccccc2F)cc1 6.09%
Cc1ccc(C(=O)N2CCC(C)CC2)cc1NC(=O)c1nsc2ccccc12 -15.2%
CC(=O)c1cc(-c2ccc(F)cc2)n(CCC(=O)Nc2nc3ccc(C)cc3s2)c1C -15.2%
Cc1ccc(S(=O)(=O)c2cc3cc(C(=O)Nc4ccc(C)cc4C)ccc3oc2=O)cc1 -7.78%
CC1CCCCN1CCCNC(=O)Cn1ncc2c3ccccc3n(C)c2c1=O (configuration not stated) -15.6%
CCc1ccccc1NC(=O)c1ccc(F)c(S(=O)(=O)N2CCN(c3cccc(Cl)c3)CC2)c1 -1.21%
CC1CCN(S(=O)(=O)c2ccc3nc(N4CCN(c5ccc(F)cc5)CC4)ccc3c2)CC1 -22.2%
COCCCn1c(=N)c(C(=O)NC2CCCCC2)cc2c(=O)n3cc(C)ccc3nc21 -18.5%
COc1ccc(CCNc2ncnc3onc(C)c23)c(OC)c1 -10.4%
Cc1ccc(O)c(-c2n[nH]c3c2C(c2ccc(F)cc2)N(Cc2ccco2)C3=O)c1 (configuration not stated) -12.8%
CC(C)OCCCNC(=O)CCCN1C(=O)CCn2nc(-c3cccn3C)cc21 -11.1%
O=C(COCc1cc(-c2cccs2)on1)Nc1cc(C(F)(F)F)ccc1Cl -11.3%
COc1cccc(C(=O)N(Cc2ccc(C)o2)C2CCS(=O)(=O)C2)c1 (configuration not stated) -16.2%
COc1ccc(-c2cc(C(F)(F)F)nc(NCc3ccc(F)cc3)n2)cc1 -8.42%
CCOc1ccc(NC(=O)CSc2oc(-c3ccc(C)cc3)nc2S(=O)(=O)c2ccc(C)cc2)cc1 -17.8%
CCOc1ccc(N2CC(c3nc4ccccc4n3CCOc3ccccc3)CC2=O)cc1 (configuration not stated) -9.48%
Cc1ccc(NC(=O)c2cc(S(=O)(=O)N3CCCCC3)c[nH]2)cc1F -12.5%
Cc1nc2ncnn2c(C)c1CCC(=O)NCc1cccc(Cl)c1 2.82%
Cc1nn(-c2ccccc2)c2sc(C(=O)Nc3cccc(Br)c3)cc12 -10%
COc1ccc(C2C=C(c3ccccc3)Nc3nc(NC(=O)/C=C/c4ccc(Cl)cc4)nn32)cc1 (configuration not stated) -11.3%
Cc1cccc(NC(=O)c2c(C)oc3ncnc(N4CCCCC4)c23)c1C -10.6%
CCCCc1nn2c(=O)cc(COC(=O)c3ccccc3NC(=O)c3cccc(C)c3)nc2s1 0.137%
Cc1noc(C)c1S(=O)(=O)NCCc1csc2nc(-c3ccc(Cl)cc3)nn12 -17.5%
O=C(COc1ccc(F)cc1)Nc1ccc(Cl)c(-c2nc3ccccc3[nH]2)c1 -8.9%
COc1ccccc1-c1nnc(C2CCN(S(=O)(=O)c3ccc(F)c(C)c3)CC2)o1 -10.5%
CCOC(=O)c1c(NC(=O)COc2ccc(Br)cc2)sc(C(C)=O)c1C -18.2%
CCOC(=O)N1CCN(C(=O)Cn2ncc3c4ccccc4n(Cc4ccc(F)cc4)c3c2=O)CC1 -7.04%
CCOc1ccc(C(=O)c2c(N)c(-c3nc(-c4ccc(OCC)cc4)cs3)c3ccccn23)cc1 -12.8%
Cc1ccc(C(=O)NCC(c2cccnc2)N2CCc3ccccc3C2)cc1C (configuration not stated) -15%
Cc1ccc(Cl)cc1NS(=O)(=O)c1ccc(N2CCCCS2(=O)=O)cc1 -2.18%
Cc1nc(-c2ccc(F)cc2)sc1CCNC(=O)c1ccc(C(C)(C)C)cc1 -7.84%
COc1ccc2nc(NC(=O)c3cc(=O)c4cc(C)c(C)cc4o3)sc2c1 -12.1%
Cc1ccc(NC(=O)Cn2c(=O)n(Cc3ccccc3)c(=O)c3c2c2cc(C)ccc2n3C)cc1 -14.7%
CC(=O)Nc1cccc(-c2cn3cccnc3n2)c1 -20.8%
CCOC(=O)CSc1nc2c(sc3ccccc32)c(=O)n1Cc1ccc(OC)cc1 -10.8%
Cc1cccc(NC(=O)c2sc(-n3nc(C)c(CCC(C)C)c3C)nc2C)c1 -12.4%
Cc1ccc2c(c1)N(C(=O)N1CCC(C(=O)NCc3ccccc3F)CC1)CC(C)O2 (configuration not stated) -23%
Nc1c(C(=O)c2ccccc2)sc(Nc2ccc(Cl)c(Cl)c2)c1C(=O)Nc1ccccc1 3.65%
Cc1cc(-n2nc3ccc(Cl)cc3n2)c(O)c(C(C)(C)C)c1 -11.4%
CCOc1ccc(NC(=O)CCSc2nc(-c3ccc4c(c3)OCO4)cc(C(F)(F)F)n2)cc1 -16.3%
COc1ccc(-n2c3c(cc(-c4nc(-c5ccc(Cl)cc5)cs4)c2=O)C(=O)CC(C)(C)C3)cc1Cl -9.47%
COc1ccc(-c2cn3c(n2)sc2cc(C(=O)Nc4ccc(C)cc4C)ccc23)cc1 -13.7%
O=S(=O)(c1ccccc1)c1nc(-c2ccccc2F)oc1N1CCOCC1 -18.2%
COc1ccc(OC)c(NC(=O)N2CCN(Cc3nc4ccc(C)cc4o3)CC2)c1 3.69%
COc1cc2ccccc2cc1C(=O)Nc1ccc2oc(-c3cccc(C)c3)nc2c1 9.59%
CN(C(=O)Cn1nnc(-c2ccc(S(C)(=O)=O)cc2)n1)c1ccccc1 -13.3%
O=C1NC(c2ccccc2)(c2ccccc2)C(=O)N1COP(=O)(O)O -16.3%
Cc1ccccc1NCc1nc2ccccc2n1CCOc1ccccc1 -10.1%
CCN1C(=O)c2ccccc2Sc2ccc(NC(=O)c3ccc(C#N)cc3)cc21 -17.2%
O[C@@H]1CO[C@H]2[C@@H]1OC[C@@H]2O -15.1%
COc1ccc(NC(=O)CSc2oc(-c3ccco3)nc2S(=O)(=O)c2ccccc2)c(OC)c1 -9.78%
COc1ccc(C(=O)Nc2nc3c(s2)Cc2cc(OC)ccc2-3)cc1 -8.32%
Cc1c(C(=O)N(C)C)sc2c1c(=O)n(-c1ccccc1C(F)(F)F)c(=O)n2Cc1cccc(F)c1 -12%
CCCCCn1c(=O)c2c(nc3n2CCN3c2ccc(Br)cc2)n(C)c1=O -8.5%
COc1cc(C)ccc1OCCSc1nc2ccc(NC(C)=O)cc2s1 -30.9%
CCOC(=O)c1ccc(NC(=O)Cn2cnc3sc(C(=O)OCC)c(C)c3c2=O)cc1 -6.93%
CCc1ccc(NC(=O)CSc2nc3c([nH]c4ccccc43)c(=O)n2-c2cccc(OC)c2)cc1 -7.26%
CCC(Sc1nnc2c3ccccc3n(C)c2n1)C(=O)Nc1nnc(C(C)C)s1 (configuration not stated) -15.6%
CCOc1ccc(NC(=O)CSc2nc(=O)[nH]c3c2CCC3)cc1 -7%
COC(=O)COc1ccc(Oc2nc(NC(C)(C)C)nc(N(C)C)n2)nn1 -10.7%
Cc1cc(F)ccc1NC(=O)CCSc1nc(-c2ccco2)cc(C(F)(F)F)n1 -14.2%
